From the supplement of paper PMC11417369
This is one part of the list.

Test system: PfHDP1 homeodomain (GST-tagged)
Assay: gcPBM binding intensity (ln(normalized median fluorescence intensity)); higher = stronger DNA binding
Outline: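 An Agilent 4 × 180k array carrying primer-extended double-stranded 36-bp intergenic genomic probes and negative controls received GST-tagged P. falciparum DNA-binding domains expressed in E. coli, about 25 μg on average, for 1 h. The binding buffer contained 1× PBS, 1% milk, 0.2 mg/ml BSA, 0.5% salmon testes DNA and 0.03% Triton X-100. Binding intensity is the top Masliner-normalised natural-log median intensity across replicate spots of either probe orientation, read after Alexa488 anti-GST antibody staining and a 488 nm scan.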

Sequence	gcPBM binding intensity (ln)
TAACATATAATATTCACACACATATATATATTATAT [CACACA_site988]	6.81
AAACATATATATATTATATATATATATATATATATG [GTGCAC_negctrl_site182]	7.39
CGATATGTTCAATATTGTACTATTTATAATAATATG [XGTACX_site3051]	6.47
ATGGCCATAATATAGACACACATATATAAATATATA [CACACA_site2230]	6.39
TATTGACAAAATAGCTGTACAAATTAAAAGAAATAA [XGTACX_site4415]	6.36
TCTTACTAATATCGCACACACATATGTAGACGGGAT [CACACA_site87]	7.39
TATTTATATGGACACACACACATATAAATAAATAAA [CACACA_site6346]	7.11
TTTAATTGATAATGAAGACAATTATATGCATCCAAA [TGCATGCA_negctrl_site138]	6.29
TTATTGTCTTCTCATATACACACTTTTATGACTATC [CACACA_site3142]	7.18
CTTAAAAAAAAAAAATGTACACATAAAAAAAATACA [XGTACX_site6700]	6.63
GGAAAAACCATTCGCACACACACATAATATATAATA [CACACA_site1424]	7.53
ATAATAATATATATTACACACGCATCGTTCATTTAT [CACACA_site8752]	7.06
ATTAATATATATGGATGTACTTATGTATGTATGCAT [XGTACX_site2263]	6.39
CATGTATAATATAATACACACTATATAATATACACC [CACACA_site5267]	6.95
ATTTTATTCTAAAAAGGTACACATATTATTTTATGA [XGTACX_site7233]	6.08
TAAATAAGGAAGGAAACACACATTAAAAAATAAATA [CACACA_site618]	6.42
TTTTTAAATTATTTGAAAAAAAGAAAATTATAAACA [CACACA_negctrl_site1599]	6.33
AACAGAAGCACATACACACACTCAAAAAAAAAAAAA [CACACA_site5652]	6.74
ATTTAGAAATATATTTGTACATATATATATATATAT [XGTACX_site7129]	9.3

Sequence	gcPBM binding intensity (ln)
ATTCAAACAAATTAATGTACATATATATAAGATATT [XGTACX_site1531]	6.71
TACCCTGATCGGCATGCATGTAAGTAACAAATATAT [TGCATGCA_site153]	6.66
TGTTGATAAAAAATAAAAAATAAAAAAATAAAATAT [TGCATGCA_negctrl_site559]	6.45
CTACATATTAATATATGTACATATTAATATATCTAA [XGTACX_site7118]	6.07
ATAAAAAGAAAAAAGGGTACACTATACTATTTAAAA [XGTACX_site4467]	6.17
ATATATACATATAAATGTACATAATTATTATGCACA [XGTACX_site1261]	9.09
TTAAAGCTTACATATACACACATACATAAATTCATA [CACACA_site8785]	6.72
TATGATGATATAAAAACACACACATATAATATAATA [CACACA_site8321]	6.89
GTAAAATAAAATATATGTACATATGTATATGAGGTA [XGTACX_site3743]	7.15
TTTTGATCATCCAAAATATCTTCATCTGAACTACTA [CACACA_negctrl_site939]	6.04
GACATATTCCCCCCCACACACACACCCACATACATA [CACACA_site2302]	8.81
TTAATGTTGTATGGTTGTACAATAAGCCCCTTTTAA [XGTACX_site2484]	6.5
TTATTTGAACAATATGCACACATTTTATTTATTTTA [CACACA_site3420]	10.1
TATAAAGCATATTAAAGTACTTATTTTCCTTTTTCT [XGTACX_site8892]	6.27
TTTTATTTTATTCTTAAATAAGTATTATAAAATATG [XGTACX_negctrl_site201]	5.94
TATATATATATGTGCACACATAATAAAAAAAAAAAT [CACACA_site3831]	9.99
AAAATATATATATATATATATATATGTATACTCCTA [XGTACX_negctrl_site312]	7.28
TTTTATGTTTCAAAATGTACATTAAAATATACCATA [XGTACX_site1713]	6.14
TTATTTATAAATATTAATTTTTTTTTTTTTTTTTTT [XGTACX_negctrl_site105]	6.62

Sequence	gcPBM binding intensity (ln)
TTAATTAAAACGAATACACACATAAATATATAAAAG [CACACA_site1254]	6.86
ATATATATATTTTTTAAACACACACCGAAATATTTG [CACACA_site8937]	7.7
TTTTATTATTGAATACTAGTATATATAATATGAAGA [CACACA_negctrl_site910]	6.62
CATATGCATACTATACGTACATATGTATATAATATA [XGTACX_site7738]	6.6
AACTTACTTGGACATACACACATATAGATTTATATA [CACACA_site7412]	6.87
GTACAAATGTTGTGTATATATACACACATACATATA [XGTACX_negctrl_site276]	7.51
ATGTAGTTTTATCAGTGTACAAGTATTTTATCACAT [XGTACX_site8958]	6.53
TTTTTATATAACCTTCTTAATTCTTTTTTTTTTTTT [XGTACX_negctrl_site591]	6.16
AAAACAAAATTATGAACATGCAAGGTAAAATTGTAA [TGCATGCA_site775]	6.92
AATATAATATAATGCACACATAAAAAAAAAATCAAA [CACACA_site122]	11
TTTTCAAAGATATATACACACATGCATATTACGGTG [CACACA_site6505]	6.6
TTAATAAATATCAATACACACACACTAATGTGAATA [CACACA_site9254]	6.3
TTTTTGAGTGCACATACACACAGACATACATTTAAA [CACACA_site5813]	10.4
CATTATGTACAAAAAGTGCAATATATATTAACACTG	8.49
TTATATATATATATATATATATATATATATATAAAT [GTGCAC_negctrl_site126]	7.57
AACAAAATAAGAAAACGTACAAATGTTTCAAATTCT [XGTACX_site1544]	6.32
TAAGGAAAAAAAATATGTACTTATAGTTCCTTCTTT [XGTACX_site2202]	5.89
ATTTGTAATATTAAATGTACAGGTAAGAAATATCAG [XGTACX_site1562]	7.25
